From a collection of fitness landscapes (doi:10.1016/j.celrep.2020.107928)
Over roughly 81,000 sequences, “one-hybrid fitness for binding parS DNA” has its median near -0.17; the highest 2% begin near 0.51. The list shows a part of the results.

B1: Caulobacter ParB omega fusion; a variant is named by its letters at X, in order, B8GW30 (parent)
chain: MESVVVGEPGMSEGRRGLGRGLSALLGEVDAAPAQAPGEQLGGSREAPIEILQRNPDQPRRTFREEDLEDLSNSIREKGVLQPILVRPSPDTAGEYQIVAGERAWRAAQRAGLKTVPIMVRELDDLAVLEIGIIENVQRADLNVLEEALSYKVLMEKFERTQENIAQTIGKSXSHVANXMRLLXLPDEVQSYLVSGELTAXHARAIAAAADPVALAKQIIEGGLSVRETEALARKAPNLSAGKSKGGRPPRVKDTDTQALESDLSSVLGLDVSIDHRGSTGTLTITYATLEQLDDLCNRLTRGI

Variants of: B1
Assay: one-hybrid fitness for binding parS DNA (scaled: cognate 1, non-cognate 0); higher = stronger binding
Settings: with parS DNA site
Procedure, shortened: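 Fitness here means the log change in variant-to-wild-type read ratio between plasmids sequenced before and after selection. That scale was set so cognate equals 1 and non-cognate equals 0. The selection was a bacterial one-hybrid screen of Caulobacter ParB libraries, four specificity codons randomised, in E. coli USO carrying a HIS3 reporter with the site 19 bp from the promoter, grown 48 hours at 37°C on M9-minus-histidine with 0.1 mM IPTG and 5 mM 3-AT.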

| Variant | one-hybrid fitness for binding parS DNA |
| --- | --- |
| CAQC | ≤ 0.2 |
| LVLW | ≤ 0.2 |
| WGTP | ≤ 0.2 |
| DHST | ≤ 0.2 |
| LMFV | ≤ 0.2 |
| HNVG | ≤ 0.2 |
| FLVE | ≤ 0.2 |
| IKDR | ≤ 0.2 |
| NSCC | ≤ 0.2 |
| RRQH | ≤ 0.2 |
| ELKN | ≤ 0.2 |
| DVPW | ≤ 0.2 |
| RTYI | ≤ 0.2 |
| LIML | ≤ 0.2 |
| RDWL | ≤ 0.2 |
| LMML | ≤ 0.2 |
| VNDI | ≤ 0.2 |
| DGHR | ≤ 0.2 |
| GNSG | ≤ 0.2 |
| SVQV | ≤ 0.2 |
| TPRA | ≤ 0.2 |
| RQID | ≤ 0.2 |
| PNKS | ≤ 0.2 |
| TYEP | ≤ 0.2 |

| Variant | one-hybrid fitness for binding parS DNA |
| --- | --- |
| ACKP | ≤ 0.2 |
| SGTS | ≤ 0.2 |
| LSVK | ≤ 0.2 |
| EMAV | ≤ 0.2 |
| RNNV | ≤ 0.2 |
| RCQD | ≤ 0.2 |
| KWQS | ≤ 0.2 |
| NVPN | ≤ 0.2 |
| CRSA | ≤ 0.2 |
| DHTR | ≤ 0.2 |
| VFKY | ≤ 0.2 |
| KYRD | ≤ 0.2 |
| PHEG | ≤ 0.2 |
| ANIG | ≤ 0.2 |
| AYDS | ≤ 0.2 |
| PTHP | ≤ 0.2 |
| AWLM | ≤ 0.2 |
| WEHS | ≤ 0.2 |
| LEQG | ≤ 0.2 |
| KRFS | ≤ 0.2 |
| SYAE | ≤ 0.2 |
| ILHV | ≤ 0.2 |
| PHGV | ≤ 0.2 |
| PQCY | ≤ 0.2 |

| Variant | one-hybrid fitness for binding parS DNA |
| --- | --- |
| HLLE | ≤ 0.2 |
| KARV | ≤ 0.2 |
| LPNF | ≤ 0.2 |
| KVQL | ≤ 0.2 |
| FTHR | ≤ 0.2 |
| QHLS | ≤ 0.2 |
| ITCY | ≤ 0.2 |
| LTHM | ≤ 0.2 |
| GMGV | ≤ 0.2 |
| LMGE | ≤ 0.2 |
| AENS | ≤ 0.2 |
| LTHA | ≤ 0.2 |
| RLWA | 0.648 |
| QVVS | ≤ 0.2 |
| ARPI | ≤ 0.2 |
| KMSR | ≤ 0.2 |
| MCHL | ≤ 0.2 |
| ANFR | ≤ 0.2 |
| ESSE | ≤ 0.2 |
| SHGT | ≤ 0.2 |
| REMH | ≤ 0.2 |
| KNLR | ≤ 0.2 |
| VEDV | ≤ 0.2 |
| AVPF | ≤ 0.2 |

| Variant | one-hybrid fitness for binding parS DNA |
| --- | --- |
| QCWT | ≤ 0.2 |
| QCHA | ≤ 0.2 |
| SFWQ | ≤ 0.2 |
| IYMS | ≤ 0.2 |
| GGDR | ≤ 0.2 |
| AYIG | ≤ 0.2 |
| TQIY | ≤ 0.2 |
| LLPS | ≤ 0.2 |
| HMVF | ≤ 0.2 |
| IVAC | ≤ 0.2 |
| HLKI | ≤ 0.2 |
| VILR | ≤ 0.2 |
| QLWG | ≤ 0.2 |
| TRFQ | ≤ 0.2 |
| VGTM | ≤ 0.2 |
| TAKV | ≤ 0.2 |
| PRAW | ≤ 0.2 |
| RKGW | ≤ 0.2 |
| HLKR | ≤ 0.2 |
| SKVT | ≤ 0.2 |
| NGAR | ≤ 0.2 |
| LWEG | ≤ 0.2 |
| APKV | ≤ 0.2 |
| VQWG | ≤ 0.2 |

| Variant | one-hybrid fitness for binding parS DNA |
| --- | --- |
| QAHL | ≤ 0.2 |
| KMMC | ≤ 0.2 |
| GHCT | ≤ 0.2 |
| FWRM | ≤ 0.2 |
| VDQE | ≤ 0.2 |
| SFSG | ≤ 0.2 |
| KFAV | ≤ 0.2 |
| HFRV | ≤ 0.2 |
| GLIR | ≤ 0.2 |
| RHPQ | ≤ 0.2 |
| YEEA | ≤ 0.2 |
| GMHC | ≤ 0.2 |
| APDE | ≤ 0.2 |
| HSHG | ≤ 0.2 |
| TAKE | ≤ 0.2 |
| DELG | ≤ 0.2 |
| AFDM | ≤ 0.2 |
| RRHW | ≤ 0.2 |
| ARNH | ≤ 0.2 |
| RRER | ≤ 0.2 |
| QGGK | ≤ 0.2 |
| DYDG | ≤ 0.2 |
| QQKG | ≤ 0.2 |
| WMMC | 0.223 |

| Variant | one-hybrid fitness for binding parS DNA |
| --- | --- |
| MKYF | ≤ 0.2 |
| HTIK | ≤ 0.2 |
| CKIS | ≤ 0.2 |
| AEAS | ≤ 0.2 |
| NYFG | ≤ 0.2 |
| TFKD | ≤ 0.2 |
| KLDC | ≤ 0.2 |
| KSMA | ≤ 0.2 |
| LGAT | ≤ 0.2 |
| DRDT | ≤ 0.2 |
| CARF | ≤ 0.2 |
| NPWD | ≤ 0.2 |
| GTAT | ≤ 0.2 |
| VHKI | ≤ 0.2 |
| TTDQ | ≤ 0.2 |
| MNTQ | ≤ 0.2 |
| SSKK | ≤ 0.2 |
| LKQC | ≤ 0.2 |
| WNLV | ≤ 0.2 |
| ATCT | ≤ 0.2 |
| DRMN | ≤ 0.2 |
| AWSI | ≤ 0.2 |
| YPNR | ≤ 0.2 |
| LSVL | ≤ 0.2 |

| Variant | one-hybrid fitness for binding parS DNA |
| --- | --- |
| QSWE | ≤ 0.2 |
| HYGY | ≤ 0.2 |
| WTFA | ≤ 0.2 |
| DYCC | ≤ 0.2 |
| TRAM | ≤ 0.2 |
| WRLA | ≤ 0.2 |
| HALR | ≤ 0.2 |
| ERPG | ≤ 0.2 |
| IDKG | ≤ 0.2 |
| PAGQ | ≤ 0.2 |
| QPQR | ≤ 0.2 |
| TFNP | ≤ 0.2 |
| ILRI | ≤ 0.2 |
| RIGQ | 0.204 |
| QPPT | ≤ 0.2 |
| SHLP | ≤ 0.2 |
| WAPK | ≤ 0.2 |
| NLPK | ≤ 0.2 |
| GALV | ≤ 0.2 |
| TTPD | ≤ 0.2 |
| SQKC | ≤ 0.2 |
| NDDI | ≤ 0.2 |
| CPTG | ≤ 0.2 |
| VKRG | ≤ 0.2 |

| Variant | one-hybrid fitness for binding parS DNA |
| --- | --- |
| VQEC | ≤ 0.2 |
| NLPW | ≤ 0.2 |
| TCQE | ≤ 0.2 |
| HWSM | ≤ 0.2 |
| RFHH | ≤ 0.2 |
| GETL | ≤ 0.2 |
| TMYS | ≤ 0.2 |
| QHHS | ≤ 0.2 |
| MRFR | ≤ 0.2 |
| PEQS | ≤ 0.2 |
| KSNV | ≤ 0.2 |
| QLWM | ≤ 0.2 |
| VEES | ≤ 0.2 |
| PLCT | ≤ 0.2 |
| WTSL | ≤ 0.2 |
| YSQR | ≤ 0.2 |
| TMCY | ≤ 0.2 |
| CLSN | ≤ 0.2 |
| NSDR | ≤ 0.2 |
| LRPQ | ≤ 0.2 |
| SPVW | ≤ 0.2 |
| QYQR | ≤ 0.2 |
| VTKF | ≤ 0.2 |
| HTMN | ≤ 0.2 |

| Variant | one-hybrid fitness for binding parS DNA |
| --- | --- |
| IGCT | ≤ 0.2 |
| HCFR | ≤ 0.2 |
| PHGQ | ≤ 0.2 |
| TFTN | ≤ 0.2 |
| ISNM | ≤ 0.2 |
| VRQF | ≤ 0.2 |
| HSNF | ≤ 0.2 |
| NIIF | ≤ 0.2 |
| GHHW | ≤ 0.2 |
| VRKQ | ≤ 0.2 |
| SCTP | ≤ 0.2 |
| TGTV | ≤ 0.2 |
| KRLD | ≤ 0.2 |
| AIGS | ≤ 0.2 |
| KRCT | ≤ 0.2 |
| LKSM | ≤ 0.2 |
| EGLS | ≤ 0.2 |
| LAHI | ≤ 0.2 |
| ACHR | ≤ 0.2 |
| YRPG | ≤ 0.2 |
| NPQR | ≤ 0.2 |
| HRYQ | ≤ 0.2 |
| YQEY | ≤ 0.2 |
| KIST | ≤ 0.2 |

| Variant | one-hybrid fitness for binding parS DNA |
| --- | --- |
| LDAI | ≤ 0.2 |
| EISS | ≤ 0.2 |
| TSEL | ≤ 0.2 |
| NPGT | ≤ 0.2 |
| VNKG | ≤ 0.2 |
| NLLI | ≤ 0.2 |
| EKPW | ≤ 0.2 |
| QHCN | ≤ 0.2 |
| GDAP | ≤ 0.2 |
| RHEM | 0.214 |
| AHLR | ≤ 0.2 |
| RCDL | ≤ 0.2 |
| CTNL | ≤ 0.2 |
| LRGV | ≤ 0.2 |
| HCVT | 0.226 |
| DSIR | ≤ 0.2 |
| IVKG | ≤ 0.2 |
| DEAR | ≤ 0.2 |
| FKLC | ≤ 0.2 |
| CCDT | ≤ 0.2 |
| RDYM | ≤ 0.2 |
| ETDC | ≤ 0.2 |
| EIAQ | ≤ 0.2 |
| VIQL | ≤ 0.2 |

| Variant | one-hybrid fitness for binding parS DNA |
| --- | --- |
| QNMT | ≤ 0.2 |
| RELG | 0.217 |
| LTVH | ≤ 0.2 |
| DCKG | ≤ 0.2 |
| QFVD | ≤ 0.2 |
| LDHD | ≤ 0.2 |
| QVAM | ≤ 0.2 |
| DVWC | ≤ 0.2 |
| QYRD | ≤ 0.2 |
| LVLA | ≤ 0.2 |
| QFAH | ≤ 0.2 |
| ITLS | ≤ 0.2 |
| YCIT | ≤ 0.2 |
| LEPA | ≤ 0.2 |
| AHDE | ≤ 0.2 |
| ETNV | ≤ 0.2 |
| GASN | ≤ 0.2 |
| NLLN | ≤ 0.2 |
| QVCR | ≤ 0.2 |
| RVQL | ≤ 0.2 |
| SQTT | ≤ 0.2 |
| QCSA | ≤ 0.2 |
| QMNP | ≤ 0.2 |
| NNVM | ≤ 0.2 |

| Variant | one-hybrid fitness for binding parS DNA |
| --- | --- |
| QIYY | ≤ 0.2 |
| PDHS | ≤ 0.2 |
| WLFE | ≤ 0.2 |
| VLKE | ≤ 0.2 |
| QFGT | ≤ 0.2 |
| ANPK | ≤ 0.2 |
| QCNK | ≤ 0.2 |
| RPMM | ≤ 0.2 |
| QIFC | ≤ 0.2 |
| QLCH | ≤ 0.2 |
| DFMV | ≤ 0.2 |
| NARS | ≤ 0.2 |
| LLPC | ≤ 0.2 |
| NRAR | ≤ 0.2 |
| WRDS | ≤ 0.2 |
| HDPG | ≤ 0.2 |
| TLLG | ≤ 0.2 |
| MSHR | ≤ 0.2 |
| NTME | ≤ 0.2 |
| AGDG | ≤ 0.2 |
| GMIV | ≤ 0.2 |
| MTDR | ≤ 0.2 |
| VTDS | ≤ 0.2 |
| EIPR | ≤ 0.2 |

| Variant | one-hybrid fitness for binding parS DNA |
| --- | --- |
| WMFG | ≤ 0.2 |
| VDGS | ≤ 0.2 |
| DRKA | ≤ 0.2 |
| TMHA | ≤ 0.2 |
| HGHG | ≤ 0.2 |
| RITR | ≤ 0.2 |
| NVYA | ≤ 0.2 |
| PDEA | ≤ 0.2 |
| PLHL | ≤ 0.2 |
| DRFT | ≤ 0.2 |
| GAMT | ≤ 0.2 |
| SRNY | ≤ 0.2 |
| CPKI | ≤ 0.2 |
| AETE | ≤ 0.2 |
| NMTF | ≤ 0.2 |
| GPQM | ≤ 0.2 |
| CRSW | ≤ 0.2 |
| WNNC | ≤ 0.2 |
